The whole screen tested about 310,000 compounds, of which about 18,000 (5.8%) were called active. The shares of active, inactive and inconclusive entries below differ from those in the screen. The call rests on the fitted dose curve; in most records, active means well fitted inhibition curve with a large enough effect; inconclusive means small, poorly fitted or top-dose-only effect, or another doubt; inactive means no such curve, though single readings can be large or run the other way. No potency is given beside an inconclusive call; the fits are too rough.
Assay: Primary qHTS for delayed death inhibitors of the malarial parasite plastid, 48 hour incubation
Conditions: P. falciparum luciferase growth in erythrocytes; series mostly up to 28.7 µM; activity change, negative = inhibition: at the top concentration
Summary of the method: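 First compound was added to culture medium, then infected red cells at 0.1% parasitemia and 2% hematocrit (final). After incubation at 37 C under 5% CO2, luciferase detection reagent was dispensed and light output recorded.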
On the % scale 0 is the no-effect control and ±100 the full control effect; potency means the concentration at half of the fitted maximal effect; tags describe the fitted curve by direction and shape.

SMILES | activity change, negative = inhibition | Potency
Cc1cccc(C(=O)O/N=C(\c2ccccc2)c2cccnc2)c1 | inactive: -19% | 
COc1ccc(NC(=O)COc2coc(CN3CCc4ccccc43)cc2=O)cc1 | inactive: 4.35% | 
COC(=O)N1C(=O)[C@](CC(C)C)(c2ccccc2)N1C(=O)OC | inactive: 20.8% | 
COc1ccc(C)cc1NC(=O)CSc1ccc(-c2ccccn2)nn1 |  | inconclusive [inhibitor, single point]
Cc1nn(CCOc2ccccc2)c(=O)n1-c1ccc(F)cc1 | inactive: 37.6% | 
Cc1ccc(/C=C2/SC(=S)N(CCCC(=O)Nc3ccc(O)cc3)C2=O)cc1 |  | inconclusive [inhibitor, partial curve, poor fit]
CCOc1ccc(C(C)=O)cc1N1C(=O)C2C(C1=O)C1C=CC2C12CC2 (stereo not drawn) | inactive: 0% | 
O=C(NC(=S)NCCOCc1ccc(Cl)cc1)c1cccnc1 | inactive: -15.8% | 
CCOC(=O)c1ccc(OC(=O)CCCCCN=C(N)N)cc1 |  | inconclusive [inhibitor, single point]
CC(=O)Nc1ccc(S(=O)(=O)Nc2ccn(Cc3ccccc3Cl)n2)cc1 | inactive: -5.53% | 
O=C(COC(=O)C1CC(O)CN1S(=O)(=O)c1ccc(Cl)cc1)c1cccc(Cl)c1 (stereo not drawn) | inactive: 3.31% | 
CCOC(=O)NC(=S)Nc1ccc(C(C)(C)C)cc1 |  | inconclusive [inhibitor, partial curve, poor fit]
C=C(C)Cn1cnc2cc(C)c(C)cc21 | inactive: -22.3% | 
CN(C(=O)c1c[nH]c(=O)cc1C(F)(F)F)c1ccc(Cl)c(Cl)c1 |  | active: 11.7 µM
COc1ccc2c(c1)[nH]c1c(N3CCSCC3)ncnc12 |  | active: 4.65 µM
Cc1nc(C(F)(F)F)nc(Nc2ccc(Br)cc2)c1C#N |  | inconclusive [inhibitor, partial curve, poor fit]
Cn1nc(C(F)(F)F)c(/C=N/OC(=O)c2ccccc2Cl)c1SCc1ccc(Cl)cc1 | inactive: 11.3% | 
O=C(Cc1cccs1)Nc1nc(-c2cccnc2)cs1 |  | inconclusive [inhibitor, single point]
Cc1c(NC(=O)C(C)OC(=O)c2sc3ccccc3c2Cl)c(=O)n(-c2ccccc2)n1C (stereo not drawn) | inactive: 3.9% | 
CCOC(=O)c1cc2ccc3ccccc3c2s1 | inactive: 402% | 
Cc1noc(C)c1CSCC(=O)Nc1cc(C(F)(F)F)ccc1N1CCOCC1 |  | inconclusive [inhibitor, partial curve, poor fit]
CCCCOc1c(Cl)cc(CNC(C)(C)CO)cc1OCC |  | inconclusive [inhibitor, single point]
COc1ccc(CCNC(=O)CCCn2c(=O)c3cccn3c3cccnc32)c(OC)c1OC |  | inconclusive [inhibitor, single point]

From PubChem BioAssay AID504832 (National Center for Advancing Translational Sciences (NCATS), 2011)
